Results: PMC5700166
The list shows a part of the results, in another mix than the full data. The list includes weakly bound sequences.

Key:
Test in all cases: protein-binding microarray (PBM)
Details in all cases: PBM: ~300 nM protein, 6 mM HEPES pH 7.8, 80 mM KCl, 0.5 mM EDTA, 0.5 mM EGTA, 6% glycerol, 35 ng/ul poly-dIdC, 1% milk, 1 h, room temperature; Ap Aiptasia and Nv Nematostella (sea anemones) / Co Capsaspora / Aq Amphimedon (sponge) / Dm Drosophila / Hu human; RHD is the Rel homology domain; high values mean tight binding; most listed sequences are background and not binding sites; double strand, one strand shown
GST-Ap-NF-kB RHD = target: T1, GST-Ap-NF-kB RHD (UniProt A0A913YAJ5)
T1 sequence: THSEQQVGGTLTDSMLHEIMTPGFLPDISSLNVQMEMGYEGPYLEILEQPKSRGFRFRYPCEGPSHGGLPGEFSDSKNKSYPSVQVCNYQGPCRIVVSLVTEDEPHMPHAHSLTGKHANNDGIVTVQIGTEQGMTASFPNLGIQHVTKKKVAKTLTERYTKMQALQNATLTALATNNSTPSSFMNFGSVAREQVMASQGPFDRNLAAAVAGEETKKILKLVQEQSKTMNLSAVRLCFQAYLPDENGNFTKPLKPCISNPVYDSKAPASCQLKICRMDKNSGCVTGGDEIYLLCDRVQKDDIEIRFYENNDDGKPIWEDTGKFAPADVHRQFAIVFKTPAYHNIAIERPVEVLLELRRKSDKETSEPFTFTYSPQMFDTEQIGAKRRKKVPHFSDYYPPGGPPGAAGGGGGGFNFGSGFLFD

[1] = target: T2, GST-Nv-NF-kB (Cys allele) (UniProt E5G601)
T2 sequence: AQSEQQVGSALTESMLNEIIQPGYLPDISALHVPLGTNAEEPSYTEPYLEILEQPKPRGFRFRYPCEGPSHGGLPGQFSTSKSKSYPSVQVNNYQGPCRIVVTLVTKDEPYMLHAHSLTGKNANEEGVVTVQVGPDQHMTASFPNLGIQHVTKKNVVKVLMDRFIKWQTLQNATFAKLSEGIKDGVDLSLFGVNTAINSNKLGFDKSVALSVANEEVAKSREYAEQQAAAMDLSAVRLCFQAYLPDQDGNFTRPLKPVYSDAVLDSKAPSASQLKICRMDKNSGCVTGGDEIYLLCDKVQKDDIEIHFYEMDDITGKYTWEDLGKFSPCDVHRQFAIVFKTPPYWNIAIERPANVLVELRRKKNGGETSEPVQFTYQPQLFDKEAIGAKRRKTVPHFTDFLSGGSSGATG

GST-Co-NF-kB = target: T3, GST-Co-NF-kB (UniProt F1ARL5)
T3 sequence: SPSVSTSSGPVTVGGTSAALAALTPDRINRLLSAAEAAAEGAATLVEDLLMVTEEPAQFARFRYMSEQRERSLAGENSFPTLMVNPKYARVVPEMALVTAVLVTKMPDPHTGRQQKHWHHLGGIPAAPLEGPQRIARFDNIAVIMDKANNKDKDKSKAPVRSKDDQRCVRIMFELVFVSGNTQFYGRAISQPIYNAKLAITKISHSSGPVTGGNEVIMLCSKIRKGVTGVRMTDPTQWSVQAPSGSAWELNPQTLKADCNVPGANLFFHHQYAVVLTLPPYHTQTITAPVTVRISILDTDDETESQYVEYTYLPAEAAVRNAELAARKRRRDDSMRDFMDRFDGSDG

GST-Dm-Relish = target: T4, GST-Dm-Relish (UniProt Q94527)
T4 sequence: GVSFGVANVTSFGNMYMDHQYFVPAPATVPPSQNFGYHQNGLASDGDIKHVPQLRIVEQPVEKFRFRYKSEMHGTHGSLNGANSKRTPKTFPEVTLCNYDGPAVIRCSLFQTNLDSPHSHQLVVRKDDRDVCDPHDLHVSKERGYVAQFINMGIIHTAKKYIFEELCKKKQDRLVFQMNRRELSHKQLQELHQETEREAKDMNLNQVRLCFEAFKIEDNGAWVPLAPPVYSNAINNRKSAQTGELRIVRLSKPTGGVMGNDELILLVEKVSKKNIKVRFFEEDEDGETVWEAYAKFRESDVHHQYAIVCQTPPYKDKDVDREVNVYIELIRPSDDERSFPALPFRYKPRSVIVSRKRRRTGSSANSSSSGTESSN

GST-Aq-NF-kB = target: T5, GST-Aq-NF-kB (UniProt A9Y5G7)
T5 sequence: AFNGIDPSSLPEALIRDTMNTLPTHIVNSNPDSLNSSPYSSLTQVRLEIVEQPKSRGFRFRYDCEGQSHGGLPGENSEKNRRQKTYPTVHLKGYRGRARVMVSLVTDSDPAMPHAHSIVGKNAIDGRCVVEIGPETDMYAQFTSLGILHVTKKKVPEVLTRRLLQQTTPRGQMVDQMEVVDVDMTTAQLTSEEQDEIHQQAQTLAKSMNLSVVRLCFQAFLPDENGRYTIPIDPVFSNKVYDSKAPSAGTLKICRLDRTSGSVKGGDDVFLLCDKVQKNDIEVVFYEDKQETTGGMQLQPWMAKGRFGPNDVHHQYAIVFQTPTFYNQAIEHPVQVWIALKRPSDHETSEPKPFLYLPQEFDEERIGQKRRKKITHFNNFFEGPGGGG

| Sequence | binding signal (GST-Ap-NF-kB RHD) [z-score] | binding signal [1] [z-score] | binding signal (GST-Co-NF-kB) [z-score] | binding signal (GST-Dm-Relish) [z-score] | binding signal (GST-Aq-NF-kB) [z-score] |
| --- | --- | --- | --- | --- | --- |
| CCGATTAACATCAAGTTGTAACCTGATGTTAATCGGGTCTTGATTCGCTTGACGCTGCTG | -1.14 | -0.504 | -0.829 | -0.436 | -0.686 |
| CCGATTAACATCATTTGCGGTGCTGATGTTAATCGGGTCTTGATTCGCTTGACGCTGCTG | 0.673 | -0.227 | -0.0282 | -0.0395 | 0.207 |
| CCGATTAACATCAACCCTGGAAGTGATGTTAATCGGGTCTTGATTCGCTTGACGCTGCTG | 0.0267 | -0.872 | 0.53 | -0.0153 | 0.0225 |
| CCGATTAACATCACGGCAACTCCTGATGTTAATCGGGTCTTGATTCGCTTGACGCTGCTG | 0.0614 | -0.741 | -0.327 | -0.557 | 0.297 |
| CCGATTAACATCAGGCTTTTCCATGATGTTAATCGGGTCTTGATTCGCTTGACGCTGCTG | -0.187 | 0.455 | 0.00392 | 0.0236 | 0.65 |
| CCGATTAACATCAGGCCAGCCACTGATGTTAATCGGGTCTTGATTCGCTTGACGCTGCTG | -0.288 | 0.524 | -0.343 | 0.345 | -0.444 |
| CCGATTAACATCACATACCTACCTGATGTTAATCGGGTCTTGATTCGCTTGACGCTGCTG | 0.892 | 0.306 | 0.568 | 0.771 | 0.0105 |
| CCGATTAACATCACTGGAAATTCTGATGTTAATCGGGTCTTGATTCGCTTGACGCTGCTG | 0.364 | -0.0237 | 0.746 | 1.59 | 0.983 |
| CCGATTAACATCAGACTGCATCTTGATGTTAATCGGGTCTTGATTCGCTTGACGCTGCTG | -0.541 | -0.0279 | -0.47 | -0.607 | -0.39 |
| CCGATTAACATCATCTTACGATATGATGTTAATCGGGTCTTGATTCGCTTGACGCTGCTG | -0.717 | -0.334 | -0.518 | -0.382 | -0.323 |
| CCGATTAACATCACTCACGGAACTGATGTTAATCGGGTCTTGATTCGCTTGACGCTGCTG | -0.363 | -0.0571 | 0.519 | -0.0586 | -0.203 |
| CCGATTAACATCATCGAGACAAATGATGTTAATCGGGTCTTGATTCGCTTGACGCTGCTG | -0.263 | -0.177 | -0.666 | -0.619 | -0.59 |
| CCGATTAACATCAAATGCTTTTCTGATGTTAATCGGGTCTTGATTCGCTTGACGCTGCTG | -0.319 | 0.233 | 0.433 | 0.0837 | -0.416 |
| CCGATTAACATCAAAAATTCCGATGATGTTAATCGGGTCTTGATTCGCTTGACGCTGCTG | -0.467 | -0.083 | 0.113 | 0.741 | 0.888 |
| CCGATTAACATCAGGATGCTTATTGATGTTAATCGGGTCTTGATTCGCTTGACGCTGCTG | -0.586 | -0.214 | 0.517 | -0.746 | -0.355 |
| CCGATTAACATCACAACGCATGATGATGTTAATCGGGTCTTGATTCGCTTGACGCTGCTG | -0.371 | -0.723 | 0.0945 | 0.204 | -0.316 |
| CCGATTAACATCAAAATTCCATGTGATGTTAATCGGGTCTTGATTCGCTTGACGCTGCTG | -0.162 | -0.201 | -0.696 | 1.36 | 0.221 |
| CCGATTAACATCAGGGCCAAAAATGATGTTAATCGGGTCTTGATTCGCTTGACGCTGCTG | -0.273 | 0.256 | -0.326 | 0.083 | 0.197 |
| CCGATTAACATCAGTAGGTTCTTTGATGTTAATCGGGTCTTGATTCGCTTGACGCTGCTG | 0.63 | -0.15 | 0.0923 | -0.0689 | 0.0356 |
| CCGATTAACATCAAGGAAATGCCTGATGTTAATCGGGTCTTGATTCGCTTGACGCTGCTG | -0.31 | -0.52 | 0.182 | -0.483 | 0.947 |
| CCGATTAACATCAGATCACACACTGATGTTAATCGGGTCTTGATTCGCTTGACGCTGCTG | -0.441 | -0.0743 | 0.0405 | -0.317 | -0.353 |
| CCGATTAACATCAGGAGAGTCCATGATGTTAATCGGGTCTTGATTCGCTTGACGCTGCTG | -0.228 | -0.317 | -0.166 | -0.555 | 0.863 |
| CCGATTAACATCAACCAACTTATTGATGTTAATCGGGTCTTGATTCGCTTGACGCTGCTG | -0.7 | 0.178 | -0.614 | -0.527 | -0.636 |
| CCGATTAACATCAGGCACCTATCTGATGTTAATCGGGTCTTGATTCGCTTGACGCTGCTG | 0.294 | -0.221 | -0.241 | -0.306 | -0.133 |
| CCGATTAACATCATGGTCAAGCATGATGTTAATCGGGTCTTGATTCGCTTGACGCTGCTG | -1.06 | -1 | -1.69 | -0.819 | -0.853 |
| CCGATTAACATCACGTATAATGATGATGTTAATCGGGTCTTGATTCGCTTGACGCTGCTG | -0.72 | -0.244 | 0.489 | 0.269 | 0.0264 |
